Hit rate of the full screen: of about 39,000 compounds, about 220 (0.56%) showed activity. This is one part of the list.
system: Escherichia coli K-12 BW25113; assay: relative growth (OD600 normalised to plate interquartile mean) (fraction); higher = less growth inhibition, active = 0.2 or less; details: 50 µM; LB; incubation time: overnight (16-24 h)
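Also: static incubation at 37 °C against the wild-type strain, values averaged over two biological replicates.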

Compound	relative growth
CC(=O)O[C@H]1CC(C)(C)C[C@H]2[C@]13CO[C@@]21CC[C@@H]2[C@@]4(C)CC[C@H](O[C@@H]5O[C@H](C(=O)O)[C@@H](O)[C@H](O[C@@H]6O[C@H](CO)[C@H](O)[C@H](O)[C@H]6O[C@@H]6O[C@@H](C)[C@H](O)[C@@H](O)[C@H]6O)[C@H]5O[C@@H]5O[C@H](CO)[C@@H](O)[C@H](O)[C@H]5O)C(C)(C)[C@@H]4CC[C@@]2(C)[C@]1(C)C[C@H]3O	inactive: 0.974
C[C@@H]1CN([C@@H](C)CO)C(=O)Cc2cc(NS(=O)(=O)c3ccc(F)cc3)ccc2O[C@@H]1CN(C)S(=O)(=O)c1cn(C)cn1	inactive: 0.951
C[C@@H]1CN([C@@H](C)CO)C(=O)c2cc(NC(=O)Cn3cnnn3)ccc2O[C@@H]1CN(C)S(C)(=O)=O	inactive: 0.98
COCC#Cc1ccc2c(c1)O[C@@H](CN(C)C(=O)c1ccccc1F)[C@H](C)CN([C@H](C)CO)S2(=O)=O	inactive: 0.998
NCC[C@@H]1CC[C@@H](NC(=O)C2CCCC2)[C@H](CO)O1	inactive: 0.981
C[C@H](CO)N1C[C@H](C)[C@H](CN(C)C(=O)NC2CCCCC2)OCCCC[C@H](C)Oc2ccc(NS(=O)(=O)c3cccs3)cc2C1=O	inactive: 1.01
C[C@H](CO)N1C[C@H](C)[C@@H](CN(C)C(=O)c2cccnc2)Oc2ncc(-c3ccc(C(=O)N(C)C)cc3)cc2C1=O	inactive: 0.996
CC(C)NC(=O)Nc1cccc2c1O[C@H](CN(C)Cc1ccc(-c3ccccc3)cc1)[C@H](C)CN([C@@H](C)CO)C2=O	inactive: 1
COc1ccc(NC(=O)N(C)C[C@H]2OCCCC[C@@H](C)Oc3ccc(NC(=O)Nc4ccccc4)cc3C(=O)N([C@H](C)CO)C[C@@H]2C)cc1	inactive: 1
O=C(NCCNS(=O)(=O)c1cccc2nonc12)[C@H]1COc2ccccc2O1	inactive: 0.966
COc1cccc(S(=O)(=O)Nc2ccc3c(c2)C(=O)N(C)C[C@@H](OC)[C@H](C)CN(C(=O)Cc2cccnc2)[C@@H](C)CO3)c1	inactive: 0.996
COc1ccc(NC(=O)Nc2cccc3c2O[C@H](CN(C)C(=O)Nc2cccc4ccccc24)[C@H](C)CN([C@@H](C)CO)C3=O)cc1	inactive: 1.02
COc1ccc(S(=O)(=O)N(C)C[C@@H]2Oc3c(NC(=O)Nc4c(C)noc4C)cccc3C(=O)N([C@@H](C)CO)C[C@H]2C)cc1	inactive: 0.988
O=C(NO)c1cccc(C(=O)N/N=C/[C@H](O)[C@@H](O)[C@@H](O)[C@H](O)C(=O)O)c1	inactive: 0.992
O=C(C[C@@H]1C[C@H]2c3cc(NC(=O)Nc4ccc(C(F)(F)F)cc4)ccc3O[C@H]2[C@H](CO)O1)NCc1cc(F)ccc1F	inactive: 0.98
CN1CCN(C(=O)C[C@H]2CC[C@@H]3[C@H](COC[C@@H](O)CN3C(=O)C3CC3)O2)CC1	inactive: 1
Cc1snnc1-c1ccccc1	inactive: 1.03
O=S1(=O)CC=CC1	inactive: 1.02
COc1ccc(S(=O)(=O)Nc2cccc3c2O[C@H](CN(C)S(=O)(=O)c2ccc(F)cc2)[C@@H](C)CN([C@H](C)CO)C3=O)cc1	inactive: 0.978

Compound	relative growth
N#C[C@H]1NCc2cnnn2Cc2ccccc21	inactive: 0.971
C[C@@H]1CCCCO[C@@H](CN(C)C(=O)Nc2ccc(F)cc2)[C@@H](C)CN([C@H](C)CO)C(=O)c2cc(NC(=O)Nc3ccc(F)cc3)ccc2O1	inactive: 0.979
Cc1noc(C)c1S(=O)(=O)Nc1ccc2c(c1)C(=O)N([C@H](C)CO)C[C@H](C)[C@@H](CN(C)C)OCCCC[C@H](C)O2	inactive: 0.985
C[C@H]1CCCCO[C@H](CN(C)Cc2ccc(C(F)(F)F)cc2)[C@@H](C)CN([C@@H](C)CO)C(=O)c2cc(NS(=O)(=O)c3cn(C)cn3)ccc2O1	inactive: 1.04
CN(C)c1ncnc2c1ncn2[C@H]1O[C@@H](CO)[C@@H](N)[C@@H]1O	inactive: 0.969
C[C@H]1CN([C@@H](C)CO)C(=O)CCCn2nncc2CO[C@H]1CN(C)S(=O)(=O)c1ccccc1C#N	inactive: 0.986
Cc1noc(C)c1S(=O)(=O)N(C)C[C@@H]1Oc2c(NC(=O)C3CC3)cccc2C(=O)N([C@@H](C)CO)C[C@@H]1C	inactive: 1.02
C[C@@H]1CCCCO[C@@H](CN(C)C(=O)Nc2ccc(C(F)(F)F)cc2)[C@H](C)CN([C@@H](C)CO)C(=O)c2cc(NC(=O)Nc3ccc(C(F)(F)F)cc3)ccc2O1	inactive: 0.988
N#Cc1ccc(-c2ccccc2F)o1	inactive: 0.928
C[C@@H]1CN([C@@H](C)CO)C(=O)c2cc(NC(=O)Nc3ccc(F)cc3)ccc2O[C@@H]1CN(C)Cc1ccc(Cl)c(Cl)c1	inactive: 1.02
COc1cccc(NC(=O)C[C@@H]2CC[C@@H]3[C@H](COc4ccc(NC(=O)C5CCOCC5)cc4C(=O)N3C)O2)c1	inactive: 1.01
CC1OC(OC2C(CO)OC(OC3C(CO)OC(O)C(O)C3O)C(O)C2O)C(O)C(O)C1NC1C=C(CO)C(O)C(O)C1O (stereo unspecified)	inactive: 1.01
COc1cc2c(cc1OC)-c1onc(-c3ccc(OCCO[Si](C(C)C)(C(C)C)C(C)C)cc3)c1CCCN(C[C@@H](C)OC(=O)NCCCCCC(=O)NO)CC2	inactive: 0.981
Cc1noc(C)c1S(=O)(=O)Nc1ccc2c(c1)CC(=O)N([C@H](C)CO)C[C@@H](C)[C@@H](CN(C)Cc1ccc(Oc3ccccc3)cc1)O2	inactive: 0.987
COc1ccc(C(=O)Nc2ccc3c(c2)C(=O)N(C)[C@@H]2CC[C@@H](CC(=O)NCC4CC4)O[C@@H]2CO3)cc1	inactive: 1.02
CC(C)(C)OC(=O)C[C@H]1CC=CC[C@H](CC(=O)NCCO)C(=O)N[C@H](Cc2ccccc2)COC1=O	inactive: 1.01
Cn1ccc(C(=O)O)cc1=O	inactive: 0.989
C[C@@H]1CN([C@H](C)CO)C(=O)c2cc(NC(=O)CCCN(C)C)ccc2O[C@@H]1CN(C)C(=O)Nc1ccccc1	inactive: 0.996
C[C@@H]1CN([C@@H](C)CO)C(=O)c2cccc(NC(=O)c3nc4ccccc4s3)c2O[C@H]1CN(C)S(C)(=O)=O	inactive: 1.01

Compound	relative growth
O=C(C[C@H]1C[C@H]2c3cc(NS(=O)(=O)c4ccccc4)ccc3O[C@H]2[C@@H](CO)O1)NC1CCCCC1	inactive: 1.02
CC(C)NC(=O)N(C)C[C@@H]1Oc2c(NS(=O)(=O)c3ccc(F)cc3)cccc2C(=O)N([C@H](C)CO)C[C@@H]1C	inactive: 1.02
C[C@H]1CN([C@@H](C)CO)C(=O)c2c(c3ccccc3n2C)-c2ccccc2CO[C@H]1CN(C)Cc1cccc(C(=O)O)c1	inactive: 0.987
COC(=O)C1=C2CC[C@H](COC(=O)NCCCCCC(=O)NO)NC(=O)N[C@H](Cc3ccccc3)c3cn(nn3)C[C@@H](Cc3ccccc3)NC(=O)c3oc(c(C(=O)OC)c3C(=O)OC)CC[C@H](COC(=O)NCCCCCC(=O)NO)NC(=O)N[C@H](Cc3ccccc3)c3cn(nn3)C[C@@H](Cc3ccccc3)NC(=O)C(=C1C(=O)OC)O2	inactive: 0.978
C[C@H](O)[C@H](O)[C@@H](O)[C@@H](O)/C=N/NC(=O)CCCCC(=O)NO	inactive: 0.985
C[C@@H]1CN([C@@H](C)CO)C(=O)c2cc(NS(=O)(=O)c3cccs3)ccc2O[C@@H](C)CCCCO[C@H]1CN(C)CC1CCCCC1	inactive: 1.01
COc1ccc(CN(C)C[C@@H]2Oc3ccc(NS(C)(=O)=O)cc3C(=O)N([C@@H](C)CO)C[C@@H]2C)cc1	inactive: 0.985
CCN(CC)CCNC(=O)c1c(C)[nH]c(/C=C2/C(=O)Nc3ccc(-c4csc(-c5ccccc5)n4)cc32)c1C	inactive: 0.963
CC(C)(CO)[C@@H](O)C(=O)NCCC(=O)NCCSSCCNC(=O)CCNC(=O)[C@H](O)C(C)(C)CO	inactive: 0.976
C[C@@H]1CN([C@H](C)CO)C(=O)c2cc(NC(=O)c3ccncc3)ccc2O[C@@H]1CN(C)S(=O)(=O)c1cccs1	inactive: 0.99
C[C@@H]1CN([C@H](C)CO)C(=O)c2cc(NC(=O)Nc3ccc(C(F)(F)F)cc3)ccc2O[C@@H](C)CCCCO[C@H]1CN(C)S(C)(=O)=O	inactive: 1.01
C[C@@H]1CCCCO[C@@H](CN(C)S(=O)(=O)c2ccc(F)cc2)[C@@H](C)CN([C@@H](C)CO)C(=O)c2cc(NC(=O)Nc3cccc4ccccc34)ccc2O1	inactive: 1.02
C[C@H]1CN([C@@H](C)CO)C(=O)c2cccc(NC(=O)c3cnccn3)c2O[C@@H]1CN(C)S(=O)(=O)c1ccccc1	inactive: 0.981
Cc1noc(C)c1NC(=O)Nc1ccc2c(c1)C(=O)N([C@H](C)CO)C[C@@H](C)[C@@H](CN(C)Cc1ccc(C(=O)O)cc1)OCCCC[C@H](C)O2	inactive: 0.988
C[C@H]1CN([C@@H](C)CO)C(=O)Cc2cc(NC(=O)CCN3CCOCC3)ccc2O[C@H]1CN(C)S(=O)(=O)c1ccc(F)cc1	inactive: 1.01
COCCOC(=O)N1C(=O)[C@@]2(c3cc(C#Cc4ccc(OC)cc4)ccc31)[C@H](c1ccccc1OCCO)N1[C@H](c3ccccc3)[C@H](c3ccccc3)OC(=O)[C@H]1[C@@H]2C(=O)NC[C@H](O)c1ccccc1	inactive: 1.09
C[C@@H]1CN([C@H](C)CO)C(=O)c2cc(NC(=O)Nc3ccc(F)cc3)ccc2O[C@@H]1CN(C)Cc1ccc(C(=O)Nc2ccccc2N)cc1	inactive: 0.981
C[C@H]1CN([C@@H](C)CO)C(=O)c2cc(C#CCN(C)C)cnc2O[C@@H]1CN(C)C(=O)Nc1cc(F)ccc1F	inactive: 1.01

Source: the supplement of paper PMC9446081
